{"source": "PubChem BioAssay AID1345083", "about": "(National Center for Advancing Translational Sciences (NCATS), 2018)", "note": "The whole screen tested about 94,000 compounds, of which about 6,200 (6.6%) were called active. This list was built around the results that the source calls inconclusive (neither active nor inactive); the mix of calls is not that of the screen. The call rests on the fitted dose curve; in most records, active means well fitted inhibition curve with a large enough effect; inconclusive means small, poorly fitted or top-dose-only effect; inactive means flat fitted curve, though single readings scatter. Potencies beside an inconclusive call are fits to weak or partial responses and may not hold up. Potency means the concentration at half of the fitted maximal effect; tags describe the fitted curve by direction and shape.", "data": [{"experiment": "Cytotoxic Profiling in HEK 293 Cell Line of Diverse Libraries Using Quantitative High-Throughput Screening; further: nearly all actives have a fitted effect of over 60% in size", "details": "HEK 293 viability, ATP luminescence (CellTiter-Glo), 48-72 h; series mostly up to 115 µM", "in_short": "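ATP-coupled CellTiter-Glo luminescence served as viability read-out, recorded 10 min after reagent addition at room temperature. HEK 293 cells, 250 cells/well, had been incubated with pintool-transferred compound for 48 or 72 hr at 37 degree Celsius.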", "values": [{"smiles": "COc1ccccc1-c1nnc2ccc(C(=O)NCc3ccc(Cl)cc3)cn12", "Potency": "inconclusive: 50.1 µM [inhibitor, partial curve, poor fit]"}, {"smiles": "CCn1cc(C(=O)N2C[C@@H](COCC3CC3)[C@H](c3ccccn3)C2)cn1", "Potency": "inactive"}, {"smiles": "COc1cc(C(=O)NCc2c[nH]c3ncccc23)nc2ccccc12", "Potency": "inconclusive: 89.1 µM [inhibitor, single point]"}, {"smiles": "COCC(=O)Nc1ccc(-c2noc([C@@H]3CCCN3C(C)C)n2)cn1", "Potency": "inactive"}, {"smiles": "CC1=C(C(=O)N2CCOC(CCCc3ccccc3)C2)OCCO1", "note": "(centres undefined)", "Potency": "inconclusive: 11.2 µM [inhibitor, full curve]"}, {"smiles": "CC(C)(C)C(=O)N1CCC2(CC1)CC(=O)N(c1ccccc1)c1ccccc1O2", "Potency": "inconclusive: 50.1 µM [inhibitor, partial curve, poor fit]"}, {"smiles": "O=C(Cc1ccsc1)Nc1cccc(-c2nnc3n2CCCC3)c1", "Potency": "inactive"}, {"smiles": "COC(=O)[C@@H](C)NC(=O)[C@@H]1CN(C(=O)c2cccc(F)c2)CCN1C(C)=O", "Potency": "inactive"}, {"smiles": "COc1ccc(CCN2Cc3cc(NC(=O)c4cccc(F)c4)ccc3OC(C)C2=O)cc1", "note": "(centres undefined)", "Potency": "inconclusive: 89.1 µM [inhibitor, single point]"}, {"smiles": "Cc1noc([C@@H]2CN(C(=O)c3cc(C)n(C)n3)C[C@H]2COCC2CC2)n1", "Potency": "inactive"}, {"smiles": "COc1ccc(-c2ccnc3nc(-c4ccco4)nn23)c(F)c1", "Potency": "inconclusive: 89.1 µM [inhibitor, single point]"}, {"smiles": "COc1ccccc1-c1cc(C(=O)NCc2cccc(Cl)c2)nn2cnnc12", "Potency": "inconclusive: 28.2 µM [inhibitor, partial curve]"}, {"smiles": "O=C(NC1CCNC1)C1CCN(c2nc(-c3ccccc3)nc3c2CCC3)CC1", "note": "(centres undefined)", "Potency": "active: 35.5 µM"}, {"smiles": "CC(C)CN1C(=O)CO[C@H](c2ccc(NC(=O)C3CC3)cc2)[C@H]1CO", "Potency": "inconclusive: 112 µM [inhibitor, partial curve, poor fit]"}, {"smiles": "CC(=O)c1cc(CN2CCC3(CC2)CN(CC(C)c2ccccc2)C(=O)O3)cs1", "note": "(centres undefined)", "Potency": "inconclusive: 63.1 µM [inhibitor, partial curve, poor fit]"}, {"smiles": "CN(C)C(=O)NC1CCN(Cc2cccc(-c3ccc(F)c(F)c3)c2)CC1", "Potency": "inconclusive: 50.1 µM [inhibitor, partial curve, poor fit]"}, {"smiles": "O=C(CN1C(=O)C(c2ccccc2)=NC12CCCCCC2)NC1CCCC1", "Potency": "inactive"}, {"smiles": "COc1ccc(C(=O)Nc2cccc(-c3nnc4n3CCCC4)c2)cc1F", "Potency": "inactive"}, {"smiles": "O=C(NCc1ccco1)C1CCc2sc(C(=O)N3CCCCCC3)cc2C1", "note": "(centres undefined)", "Potency": "inconclusive: 35.5 µM [inhibitor, partial curve, poor fit]"}]}]}
